# Reference: PubChem BioAssay AID1457 (National Center for Advancing Translational Sciences (NCATS), 2008)
# Hit rate of the full screen: of about 210,000 compounds, about 730 (0.35%) were called active. This list was built around the results that the source calls inconclusive (neither active nor inactive); the mix of calls is not that of the screen. Calls come from the whole dose curve; as a rule, active = well fitted inhibition curve with a large enough effect; inconclusive = small, poorly fitted or top-dose-only effect; inactive = no such curve, though single readings can be large or run the other way. Potencies of inconclusive entries are doubtful fits and often do not repeat.
# Test: qHTS Assay for Identifying the Cell-Membrane Permeable IMPase Inhibitors: Potentiation with Lithium; note: nearly all actives have a fitted effect of over 50% in size
# Conditions: CHO-M1 cells, IP1 TR-FRET (IP-One), carbachol + lithium; series mostly up to 59.4 µM
# Outline: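 CHO-M1, 2000 cells/well, 16–30 h culture; cpd + low Li+, 30 min 37C; lysis with d2-IP1/Eu-anti-IP1 Ab, 10 min RT; TR-FRET 665/620 ratio and 620 channel; AC50 via Hill.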
# Potency is the fitted concentration of half-maximal effect.
row,SMILES,Potency
1,CN(C)CCCNS(=O)(=O)c1ccc(N2CCC(c3ccc(Cl)cc3)=N2)cc1,"inconclusive: 28.2 µM [inhibitor, single point]"
2,CCN(CC)C(=O)Cn1cc(C(=O)C(=O)NCc2cccs2)c2ccccc21,"inconclusive: 28.2 µM [inhibitor, single point]"
3,Cc1ccc(N2C(=O)C3C4C=CC(CNC(=S)N5CCN(c6ccccc6)CC5)(O4)C3C2=O)cc1 (stereo not drawn),"inconclusive: 28.2 µM [inhibitor, single point]"
4,COC(=O)c1ccc(C2/C(=C(/O)c3ccc(OC(C)C)cc3)C(=O)C(=O)N2c2cc(C)on2)cc1 (stereo not drawn),active: 10 µM
5,CCOc1ccc(NC(=O)c2nn(-c3ccc(OC)cc3OC)c(=O)c3ccccc23)cc1,"inconclusive: 3.16 µM [inhibitor, single point]"
6,COC(=O)c1ccc(NC(=O)c2cn(-c3ccccc3)nc2-c2ccncc2)cc1,"inconclusive: 12.6 µM [inhibitor, single point]"
7,CCOC(=O)c1cc2c(=O)n3ccccc3nc2n(CCCOC)c1=NC(=O)C(C)(C)C,"inconclusive: 7.08 µM [inhibitor, partial curve]"
8,O=c1c(CCc2ccccc2)nc2cnc(Nc3ccccc3)nc2n1Cc1cccs1,"inconclusive: 15.8 µM [inhibitor, single point]"
9,Cc1sc2ncnc(NCc3ccccc3)c2c1C,"inconclusive: 28.2 µM [inhibitor, single point]"
10,Cc1ccc(NC(=O)CSc2nc3ccccc3c(=O)n2Cc2cccs2)cc1,active: 12.6 µM
11,COc1cc2[nH]c(=O)n(CCC(=O)NCCCN3CCN(c4ccccc4F)CC3)c(=O)c2cc1OC,"inconclusive: 5.01 µM [inhibitor, single point]"
12,COc1cccc(C2/C(=C(\O)c3ccc4c(c3)OCCO4)C(=O)C(=O)N2CCN(C)C)c1 (stereo not drawn),"inconclusive: 22.4 µM [inhibitor, single point]"
13,O=C(Nc1cccc(C(F)(F)F)c1)c1cc(-c2cccs2)on1,"inconclusive: 22.4 µM [inhibitor, single point]"
14,O=C(Nc1ccc2c(c1)OCO2)C1CC(=O)N(CCc2ccccc2)C1 (stereo not drawn),inactive
15,CC(=C1C(=O)c2ccccc2C1=O)N1CCN(Cc2ccccc2)CC1,inactive
16,O=C1Nc2ccc(I)cc2/C1=C/c1cc(Br)c(O)c(Br)c1,inactive
17,Clc1ccc(Oc2nc3ccccc3n3cccc23)cc1,"inconclusive: 14.1 µM [inhibitor, single point]"
18,O=C(CCS(=O)(=O)c1cccc2nonc12)NC1CCCCCC1,"inconclusive: 5.01 µM [inhibitor, single point]"
19,COc1cc(C=NCC2OCCc3ccccc32)cc(OC)c1 (stereo not drawn),inactive
20,O=C(O)c1cc(-c2ccc3c(c2)OCO3)nc2ccc(Br)cc12,active: 11.2 µM
21,COc1cccc(CN2C(=O)C3CCCN3c3ccc(S(=O)(=O)N4CCOCC4)cc32)c1 (stereo not drawn),"inconclusive: 11.2 µM [inhibitor, single point]"
22,CC1Cc2ccccc2N1S(=O)(=O)c1c(N)n(C)c(=O)n(C)c1=O (stereo not drawn),"inconclusive: 28.2 µM [inhibitor, single point]"
23,CCN(CC)C(=O)c1ccc(N)cc1,inactive
24,COc1ccccc1C1C(C(C)=O)=C(O)C(=O)N1CCc1ccccc1 (stereo not drawn),"inconclusive: 8.91 µM [inhibitor, single point]"
25,COc1ccc(-n2c(SCC(=O)Nc3cc(C)on3)nc3c(c2=O)SCC3)cc1,"inconclusive: 28.2 µM [inhibitor, single point]"

row,SMILES,Potency
1,CCN(CC)C(=O)N1CCN(S(=O)(=O)c2c(C)cc(C)cc2C)CC1,"inconclusive: 28.2 µM [inhibitor, single point]"
2,Cc1ccsc1C1CC(=O)OC2=C1C(=O)CC(C)(C)C2 (stereo not drawn),"inconclusive: 5.01 µM [inhibitor, single point]"
3,CCOc1cccc(-c2nnc3sc(-c4cccs4)nn23)c1,"inconclusive: 28.2 µM [inhibitor, single point]"
4,CSc1nnc(SC)nn1,inactive
5,CC1(C)Cc2c(sc3nc(SCC(=O)NCc4ccco4)n(-c4ccccc4)c(=O)c23)CS1,"inconclusive: 31.6 µM [inhibitor, single point]"
6,Cc1ccn2c(C=O)c(-c3ccc(F)cc3)c(C=O)c2c1,"inconclusive: 2.82 µM [inhibitor, single point]"
7,O=C(COc1ccc(Cl)cc1Cl)Nc1c(-c2cccs2)nc2ccccn12,"inconclusive: 12.6 µM [inhibitor, single point]"
8,Cc1cccc(N2C(=O)C(O)=C(C(=O)c3cccs3)C2c2ccc(F)cc2)n1 (stereo not drawn),"inconclusive: 11.2 µM [inhibitor, single point]"
9,COCCNC(=O)NC(=O)CN1CCCc2ccccc21,"inconclusive: 3.16 µM [inhibitor, single point]"
10,CCC(C)OC(=O)c1cc(C)nc2c(Br)cc(Br)cc12 (stereo not drawn),"inconclusive: 10 µM [inhibitor, single point]"
11,Cc1c(C(Nc2ccccn2)c2ccc(Cl)cc2)c(=O)n(-c2ccccc2)n1C (stereo not drawn),inactive
12,O=C(CCCSc1nc(-c2ccco2)cc(C(F)(F)F)n1)NCC1CCCO1 (stereo not drawn),inactive
13,O=C(Nc1ccccn1)c1sc2cccc(F)c2c1Cl,"inconclusive: 14.1 µM [inhibitor, single point]"
14,CN(C)c1ccc(C(=N)c2ccc(N(C)C)cc2)cc1,inactive
15,Cc1cccc2cc(CN(Cc3ccc(F)cc3)Cc3nnnn3C3CCCC3)c(=O)[nH]c12,inactive
16,O=c1n(-c2ccccc2)c(=O)n2n1CCC2,inactive
17,CCCOc1cccc(C2/C(=C(/O)c3ccc(OC)cc3)C(=O)C(=O)N2CCN(C)C)c1 (stereo not drawn),"inconclusive: 20 µM [inhibitor, partial curve, poor fit]"
18,N#Cc1cc2c(nc1SCc1cccnc1)CCCC2,"inconclusive: 28.2 µM [inhibitor, single point]"
19,CC(C)c1ccccc1S(=O)c1ccccc1C(C)(C)O (stereo not drawn),inactive
20,CCn1c(SC(=O)NC2CCCCC2)nnc1-c1cccs1,"inconclusive: 11.2 µM [inhibitor, partial curve]"
21,NC(=O)c1ccc(NC(=O)COC(=O)/C=C/c2cn(-c3ccccc3)nc2-c2cccnc2)cc1,"inconclusive: 12.6 µM [inhibitor, partial curve]"
22,Cc1ccc(-c2csc(/C(C#N)=C/Nc3ccc4c(c3)OCCO4)n2)cc1,"inconclusive: 25.1 µM [inhibitor, single point]"
23,O=C(COc1ccc(OCc2ccccc2)cc1)NC1CCOC1=O (stereo not drawn),"inconclusive: 28.2 µM [inhibitor, single point]"
24,O=C(O)/C=C/C(=O)Nc1ccc2nccnc2c1,inactive
25,c1csc(C2=Nn3c(nnc3-c3ccncc3)SC2)c1,inactive

row,SMILES,Potency
1,COc1ccc(-c2nnc(Nc3ccc(OC)c(C(=O)N4CCCCC4)c3)c3ccccc23)cc1,inactive
2,CN(C)C(=S)NC1CCS(=O)(=O)C1 (stereo not drawn),inactive
3,CSCCC(NC(=O)COc1ccccc1)C(=O)O (stereo not drawn),inactive
4,COc1ccc(C(=O)CSc2nnc(-c3ccc(S(=O)(=O)N4CCOCC4)cc3)o2)cc1,"inconclusive: 14.1 µM [inhibitor, single point]"
5,COC(=O)c1oc2ccc(Br)cc2c1NC(=O)c1ccccc1,"inconclusive: 12.6 µM [inhibitor, single point]"
6,Cc1noc(C)c1C(=O)N1CCC[C@@]2(CCN(C(c3ccccc3)c3ccccc3)C2)C1,inactive
7,CCc1c(C)nc2c(OC)cccc2c1SCCC(=O)O,"inconclusive: 11.2 µM [inhibitor, partial curve]"
8,Cc1ccc(C2C(C#N)=C(N)SC(N)=C2C#N)c(C)c1,active: 7.94 µM
9,Cc1cc(NC(=O)c2cccc(COc3ccc(Br)cc3)c2)no1,"inconclusive: 11.2 µM [inhibitor, single point]"
10,CCn1c2ccccc2c2cc(C3C(C#N)=C(C)NC(C)=C3C#N)ccc21,"inconclusive: 25.1 µM [inhibitor, partial curve]"
11,CCn1c(CSc2nnc(-c3cccnc3)n2-c2ccccc2C)nc2cc(C(=O)O)ccc21,inactive
12,Cc1cccc(C(=O)Nc2ccc3c(c2)C(=O)N(CC(C)C)C3=O)c1,"inconclusive: 28.2 µM [inhibitor, single point]"
13,O=S(=O)(Cc1ccccc1)/C1=C(\N2CCOCC2)CCCCCC1,inactive
14,COc1ccc(Oc2nc(SC)nc3ccccc23)cc1,active: 10 µM
15,c1coc(-c2nnc(-c3cccs3)o2)c1,inactive
16,Cn1ncc(Cl)c1C(=O)NC(=S)Nc1sc2c(c1C#N)CCCCC2,inactive
17,C=CCOc1cccc(C2C(C(=O)c3ccc(C)o3)=C(O)C(=O)N2Cc2ccncc2)c1 (stereo not drawn),active: 11.2 µM
18,COc1ccc(CC(=O)Nc2ccc(-c3cn4ccccc4n3)cc2)cc1OC,"inconclusive: 11.2 µM [inhibitor, single point]"
19,CCOCCCNC(=O)c1ccc2c(=O)n(Cc3ccc4c(c3)OCO4)c(=S)[nH]c2c1,"inconclusive: 22.4 µM [inhibitor, single point]"
20,CC(=O)c1ccc(N2CCN(C(=O)c3ccc(Br)cc3)CC2)c(F)c1,"inconclusive: 28.2 µM [inhibitor, single point]"
21,Cc1nc(-c2ccc(Br)cc2)ccc1C(=O)O,active: 8.91 µM
22,COc1ccc2nc(C)cc(SCC(=O)Nc3c(C)cc(C)cc3C)c2c1,"inconclusive: 28.2 µM [inhibitor, single point]"
23,Cc1nc2cc(NC(=O)C3COc4ccccc4O3)ccc2s1 (stereo not drawn),inactive
